Source: PubChem BioAssay AID463173 (ICCB-Longwood Screening Facility, Harvard Medical School, 2010)
Out of some 52,000 compounds screened, about 4,300 (8.3%) were called active. Cut-off read from the data, not from the text of the source: active = survival mostly below about 52% (no sharp cut-off); inactive = mostly above about 56%. This is one part of the list.

Each compound was assayed on DeltatarO mutant (assay: growth inhibition of S. aureus wild type versus tarO mutant, primary screen, teichoic acid synthesis inhibitors, RN4220, OD600 (AID 463173)). Conditions: OD600, 18 h, hits give low values, screened at 18.75 µg/mL (by protocol).
Cc1ccccc1-c1nc(SCC(=O)NCC2CCCO2)c2c(=O)n(C)c(=O)n(C)c2n1 (stereo not given) was tested, and the survival was inactive: 78%.
With COc1ccc(Cc2nc3ccc(C(=O)NCCCN4CCN(C)CC4)cc3o2)cc1 the survival was inactive: 124%.
For COCCNC(=O)c1ccc2c(=O)n(CCOC)c(SCC(=O)c3c[nH]c4ccccc34)nc2c1, the survival was active: 17%.
For COc1ccc(N2CCN(C(=O)c3sc4nc5n(c(=O)c4c3C)CCC5)CC2)cc1, the survival was inactive: 103%.
With Cc1cccc(CCNC(=O)CCc2c(C)nc3ncnn3c2C)c1 the survival was inactive: 93%.
For CCc1cccc(NC(=O)c2oc3ccc4c(c3c2C)C(=O)CC(C)(C)O4)c1, the survival was inactive: 85%.
In the case of COc1cccc(CN2C(=O)C3(SCC(=O)N3c3ccc(C(C)C)cc3)c3ccccc32)c1 (stereo not given), the survival is reported as inactive: 55%.
In the case of Cn1c(SCc2ccccc2Cl)nc2c([nH]c3ccccc32)c1=O, the survival is reported as inactive: 65%.
For COc1cccc(CNS(=O)(=O)c2ccc(-c3cc(C(F)(F)F)on3)s2)c1, the survival was inactive: 94%.
With O=C(c1ccc2c(c1)OCCO2)N(Cc1cccnc1)c1nc2c(F)cc(F)cc2s1 the survival was inactive: 88%.
For CCOC(=O)c1ccc(N2C(=O)Cc3cc(OCC)c(OCC)cc3C2c2ccccc2)cc1 (stereo not given), the survival was inactive: 117%.
In the case of CCOc1ccc(NS(=O)(=O)c2ccc3[nH]cc(C(=O)N4CCCCCC4)c(=O)c3c2)cc1, the survival is reported as inactive: 113%.
With COc1ccc(N(CC(=O)Nc2cc(Cl)ccc2C)S(=O)(=O)c2c(C)noc2C)cc1 the survival was inactive: 51%.
For CCOc1ccc(C(=O)Nc2ccc3oc(-c4ccc(Br)cc4)nc3c2)cc1, the survival was inactive: 68%.
For Cc1ccc(NC(=O)C2CCC(CNS(=O)(=O)c3cccc4nsnc34)CC2)c(C)c1 (stereo not given), the survival was inactive: 95%.
In the case of COc1ccc(-c2nc3sc(CCNC(=O)C(=O)Nc4ccc(C)cc4C)c(C)n3n2)cc1, the survival is reported as inactive: 71%.
In the case of O=C(Cn1c(=O)oc2cc(S(=O)(=O)N3CCCC3)ccc21)Nc1ccc(OC(F)(F)F)cc1, the survival is reported as inactive: 87%.
With Cc1nc2ccc(S(=O)(=O)N(CC(=O)Nc3cccc(C)c3C)Cc3ccccc3)cc2s1 the survival was inactive: 89%.
Cc1ccc(C)c(Cn2c(C(C)NC(=O)c3ccccc3)nc3ccccc32)c1 (stereo not given) was tested, and the survival was inactive: 88%.
O=C(CCn1cnc2onc(-c3ccc(F)cc3)c2c1=O)N1CCN(c2ccccc2)CC1 was tested, and the survival was inactive: 60%.
COc1cccc(OCc2nc3ccccc3n2C)c1 was tested, and the survival was inactive: 57%.
For O=C(NCc1noc2ccccc12)N1CCN(c2ccccc2F)CC1, the survival was inactive: 40%.
For O=C(Cn1c(=O)n(Cc2ccc(F)cc2)c(=O)c2sc3ccccc3c21)NCc1ccccc1, the survival was inactive: 86%.
For Cc1ccc(OCCSc2nc3ccccc3n2CC(=O)N2CCCCC2)c(C)c1, the survival was inactive: 51%.
For CCOc1ccc(C(c2c(C)[nH]n(-c3ccccc3)c2=O)c2c(C)[nH]n(-c3ccccc3)c2=O)cc1OC, the survival was inactive: 70%.
CCN(CC)CCNC(=O)c1ccc2c(=O)n3nc(Nc4cccc(Cl)c4C)sc3nc2c1 was tested, and the survival was inactive: 107%.
In the case of CCc1ccc(-c2cn3c(n2)sc2cc(C(=O)NCCCc4ccccc4)ccc23)cc1, the survival is reported as inactive: 70%.
For CCOc1cccc2cc(-c3nc(-c4ccc(Cl)cc4)c(C)s3)c(=O)oc12, the survival was inactive: 105%.
COc1ccc(-c2ccc(NS(=O)(=O)c3ccccc3Cl)cc2)nn1 was tested, and the survival was inactive: 75%.
For Cc1nc(N2CCOCC2)c2c(C(=O)N3CCN(c4ccc(Cl)cc4)CC3)c(C)oc2n1, the survival was inactive: 92%.
COc1ccc(Cn2c(CCC(=O)Nc3cccc(Cl)c3)nc3cccnc32)cc1 was tested, and the survival was inactive: 97%.
In the case of CCOC(=O)c1ccc(NC(=O)Cn2cc(S(=O)(=O)Cc3ccccc3F)c3ccccc32)cc1, the survival is reported as inactive: 73%.
CCCOc1ccccc1C(=O)Nc1ccc(-c2nc3ccc(C)cc3s2)cc1 was tested, and the survival was active: 29%.
Cc1cccc(Nc2cc(C)nc3nc(Cc4ccc(Cl)cc4)nn23)c1 was tested, and the survival was active: 36%.
In the case of Cc1cc(-c2ccccc2)nc2cc(C(=O)Nc3cc(C(F)(F)F)ccc3Cl)nn12, the survival is reported as inactive: 58%.
In the case of COc1ccc(CNC(=O)c2ccc3c(Cl)c4c(nc3c2)CCCC4)c(OC)c1, the survival is reported as inactive: 92%.
In the case of Cc1nc(SCC(=O)Nc2ccc(Cl)cc2C(F)(F)F)[nH]c(=O)c1Cc1ccccc1, the survival is reported as inactive: 68%.
For Cc1ccc(Cn2cc3c(n2)-c2c(oc(C(=O)Nc4ccc(F)cc4F)c2C)CC3)cc1, the survival was inactive: 85%.
For CCOc1ccccc1CNC(=O)c1ccc2nc(CCc3ccccc3)oc2c1, the survival was inactive: 83%.
With CCc1nn2c(=O)cc(COC(=O)c3cccs3)nc2s1 the survival was inactive: 83%.
COC(=O)c1ccc(CN(Cc2ccc(OC)c(OC)c2)S(=O)(=O)c2ccc(F)c(C(=O)Nc3cc(C)ccc3C)c2)cc1 was tested, and the survival was inactive: 94%.
For CCOc1ccccc1NC(=O)CN1Cc2ccccc2C1=O, the survival was inactive: 96%.
For N#Cc1nc(/C=C/c2ccc(F)cc2)oc1N1CCCCC1, the survival was inactive: 93%.
In the case of CC(=O)N/N=C/c1cc(C(C)C)cc(/C=N/NC(C)=O)c1O, the survival is reported as inactive: 98%.
For Cc1cccc(C(=O)NCC(=O)OCc2cc(=O)n3nc(C)sc3n2)c1, the survival was inactive: 82%.
For O=C(NCc1ccccc1)c1ccc(Cn2c(=O)c3cccn3c3cccnc32)cc1, the survival was inactive: 108%.
In the case of CCOC(=O)c1c(-c2ccccc2)csc1NC(=O)c1cc(-c2cccc(Cl)c2)on1, the survival is reported as inactive: 59%.
Cc1ccc(C)c(N2CCN(S(=O)(=O)c3ccc4c(c3)n(C)c(=O)c(=O)n4C)CC2)c1 was tested, and the survival was inactive: 76%.
COc1cc(OC)c(NC(=O)CSCc2nc(-c3ccc(OC)c(OC)c3)no2)cc1Cl was tested, and the survival was inactive: 96%.
CC(=O)c1cccc(NC(=O)c2ccc3c(c2)c(C)c(C)n3Cc2ccc(Cl)cc2)c1 was tested, and the survival was inactive: 82%.
CN(Cc1ccccc1)S(=O)(=O)c1ccc(F)c(C(=O)Nc2cc(Cl)cc(Cl)c2)c1 was tested, and the survival was inactive: 87%.
O=C(Nc1cc(-c2nc3cc(Cl)ccc3o2)ccc1Cl)c1cc2ccccc2o1 was tested, and the survival was inactive: 82%.
CCN(Cc1ccccc1)Cc1c(O)ccc2c(=O)c(-c3ccccc3Cl)coc12 was tested, and the survival was inactive: 51%.
In the case of O=C(O)CN1Cc2ccccc2C1, the survival is reported as inactive: 99%.
For CCn1cc(C(=O)NCCCOC(C)C)c(=O)c2cc(S(=O)(=O)N(C)C3CCCCC3)ccc21, the survival was inactive: 113%.
